Laboratory results as given in PubChem BioAssay AID445 (National Center for Advancing Translational Sciences (NCATS), 2006).
Among all 110,000 compounds or so, about 40 (0.04%) were called active. The inconclusive results got no clear call from the source; some entries with a clear call stand among them for comparison. Calls come from the whole dose curve; as a rule, active = well fitted curve in the direction sought with a large enough effect in the signal ratio (not every such curve was filed as active); inconclusive = small, poorly fitted or top-dose-only effect, or a change in a side signal; inactive = flat fitted curve, though single readings scatter; the % refers to the signal ratio. A potency beside an inconclusive call is a rough fit, not a confirmed value.
Potency is the fitted concentration of half-maximal effect.

Assay: IkB Signaling;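 for IkBa stabilization activation: 0% = basal untreated cells and 100% = reference inhibitor full response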
Conditions: ABC-DLBCL IkBa-CBG/CBR dual luciferase ratio (green luciferase fused to IkBa over red control in OCI-Ly3 lymphoma cells), 4 h; IkBa stabilization activation: at 57.1 µM (top of the series), scaled: untreated 0%, proteasome inhibitor 100% unless noted
Method in brief: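 Luminescence ratio of IκBα-fused green versus native red beetle luciferase in OCI-Ly3 cells, 4 h post-doxycycline with compound; red signal alone, scaled from basal (0%) to zero light (-100%), flagged nonspecific or cytotoxic effects.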
With `Cc1cccc(NC(=O)CN2C(=O)C3(SCC(=O)N3c3ccccc3)c3ccccc32)c1` (stereo unspecified) the IkBa stabilization activation was inconclusive: 14.4% [signal inhibitor].
In the case of `O=c1c(-c2ccc(F)cc2)nc2cnc(Nc3ccccc3)nc2n1C[C@H]1CCCO1`, the IkBa stabilization activation is reported as inactive: -0.446% [at 11.4 µM, scaled: untreated 0%, proteasome inhibitor 100%].
For `Cc1ccc(S(=O)(=O)N2CCN(Cc3ccccc3Cl)CC2)cc1`, the IkBa stabilization activation was inconclusive: 9.87% [signal inhibitor].
In the case of `CC(C)Cn1cc(NC(=O)NCc2cccc(Cl)c2)c2ccccc2c1=O`, the IkBa stabilization activation is reported as inconclusive: 3.29% [signal inhibitor].
For `COc1ccc(NC(=O)c2cccc(N3CCCS3(=O)=O)c2)c(OC)c1`, the IkBa stabilization activation was inconclusive: 3.29% [signal inhibitor].
In the case of `O=C(NCCc1ccccc1)c1ccc2c(c1)N(Cc1ccc(F)cc1)C(=O)CS2`, the IkBa stabilization activation is reported as inconclusive: -3.36% [signal inhibitor].
With `O=C(NCCC1=CCCCC1)c1ccc2c(c1)sc1nc(-c3ccc(F)cc3)cn12` the IkBa stabilization activation was inconclusive: 0.564% [signal inhibitor].
For `O=C(CSc1nc2ccccc2c(=O)n1CCCO)NCc1ccccc1`, the IkBa stabilization activation was “inactive”.
With `Oc1cc(O)c2c(c1)O[C@H](c1ccc(O)c(O)c1)[C@@H](O)[C@@H]2c1c(O)cc(O)c2c1O[C@@H](c1ccc(O)c(O)c1)[C@H](O)C2` the IkBa stabilization activation was inactive: 0.0726% [at 11.4 µM, scaled: untreated 0%, proteasome inhibitor 100%].
With `CCN(CC)c1ccc(NC(=O)CN2CCN(CC(=O)Nc3ccc(Cl)cc3)CC2)cc1` the IkBa stabilization activation was inconclusive: 0.58% [signal inhibitor].
In the case of `CC1(C)O[C@H]2C[C@@H]3[C@H]4CCC5=CC(=O)CC[C@@]5(C)[C@]4(F)[C@@H](O)C[C@@]3(C)[C@@]2(C(=O)CCl)O1`, the IkBa stabilization activation is reported as inconclusive: 7.83% [signal activator] [at 25.6 µM, scaled: untreated 0%, proteasome inhibitor 100%].
In the case of `Cc1ccc(CSc2cn(CC(=O)N3CCCCCC3)c3ccccc23)cc1`, the IkBa stabilization activation is reported as inconclusive: 0.274% [signal inhibitor].
With `CCOc1ccccc1CNCCCSc1nnnn1C` the IkBa stabilization activation was “inactive”.
With `CCCN(Cc1cc2cccc(C)c2[nH]c1=O)C(=O)c1cccc(Cl)c1` the IkBa stabilization activation was inconclusive: 3.17% [signal inhibitor].
For `COc1ccccc1NC(=O)CC(C)n1nc(C)cc1C` (stereo unspecified), the IkBa stabilization activation was inconclusive: 0.736% [signal inhibitor].
In the case of `CCOC(=O)c1ccc(NC(=O)CSc2nc3c(c(=O)[nH]2)CN(Cc2ccccc2)CC3)cc1`, the IkBa stabilization activation is reported as inconclusive: 0.961% [signal inhibitor].
With `COc1ccc(-n2nc3c(N4CCC(C(=O)NCc5ccccc5C)CC4)nnc(C)c3c2C)cc1` the IkBa stabilization activation was inconclusive: -0.237% [signal inhibitor].
In the case of `CCOC(=O)N1CCC(NC(=O)c2c(C)nn(-c3cccc(C)c3)c2-n2cccc2)CC1`, the IkBa stabilization activation is reported as inconclusive: 0.0233% [signal inhibitor].
With `COc1ccc(OC)c(CCNC(=O)CCCn2c(=O)c3cccn3c3ccc(F)cc32)c1` the IkBa stabilization activation was inconclusive: 0.0315% [signal inhibitor].
In the case of `Cc1nc(SCC(=O)N(C)Cc2ccco2)c2c(C)c(C)sc2n1`, the IkBa stabilization activation is reported as inconclusive: 1.58% [signal inhibitor].
In the case of `CN(CC(=O)Nc1ccc(C#N)cc1)Cc1ccc(Cl)cc1`, the IkBa stabilization activation is reported as inconclusive: 2.76% [signal inhibitor].
For `Cc1ccc(N(CC(=O)N2CCN(c3ccc(F)cc3)CC2)S(=O)(=O)c2c(C)noc2C)cc1`, the IkBa stabilization activation was inconclusive: 2.95% [signal inhibitor].
For `CC(C)(C)C(=O)NCCc1nc2ccccc2n1CCCCOc1ccccc1`, the IkBa stabilization activation was inconclusive: -0.356% [signal inhibitor].
In the case of `COC(=O)c1ccccc1NS(=O)(=O)c1cc2c(cc1C)N(C)CCO2`, the IkBa stabilization activation is reported as inconclusive: -0.764% [signal inhibitor].
For `COc1ccccc1N1CCN(C(=O)CN2C(=O)COc3ccc(S(=O)(=O)N4CCOCC4)cc32)CC1`, the IkBa stabilization activation was inconclusive: 0.172% [signal inhibitor].
For `CCN(CC)C(=O)c1c(-c2ccccc2)c(-c2ccccc2)nn(CC)c1=O`, the IkBa stabilization activation was inconclusive: -0.753% [signal inhibitor].
For `COc1ccc(CCC(=O)NC2CC(=O)N(c3ccc(F)cc3)C2)cc1` (stereo unspecified), the IkBa stabilization activation was inconclusive: 3.72% [signal activator].
With `COc1ccc(-c2nc3sc(CCNC(=O)c4ccc(Br)o4)c(C)n3n2)cc1` the IkBa stabilization activation was inconclusive: 5.18% [signal inhibitor].
In the case of `CCN(Cc1nc(-c2ccc(OC)c(OC)c2)no1)S(=O)(=O)c1ccc(OC)cc1`, the IkBa stabilization activation is reported as inconclusive: 0.935% [signal inhibitor].
With `COc1ccc(C(c2sc3ncnn3c2O)N2CCN(c3ccccc3F)CC2)cc1OC` (stereo unspecified) the Potency was inconclusive: 15.8 µM [signal inhibitor, partial curve].
With `COc1cc(-c2nc(S(=O)(=O)c3ccc(C)cc3)c(N3CCOCC3)o2)cc(OC)c1OC` the IkBa stabilization activation was “inactive”.
For `O=C(CSc1nc(=O)n(Cc2ccccn2)c2c1CCC2)Nc1ccccc1`, the IkBa stabilization activation was inconclusive: 6.6% [signal inhibitor].
In the case of `CSc1ccccc1NC(=O)CCS(=O)(=O)c1nc(-c2ccc3c(c2)OCO3)cc(C(F)(F)F)n1`, the IkBa stabilization activation is reported as “inactive”.
For `CC(C)(C)OC(=O)N1CCC(c2c(C(=O)NC3CCCCC3)cnn2-c2ccc(F)cc2F)CC1`, the IkBa stabilization activation was inconclusive: 3.05% [signal inhibitor].
For `Cc1ccc(S(=O)(=O)C(CNS(=O)(=O)c2cc(F)ccc2F)c2cccs2)cc1` (stereo unspecified), the IkBa stabilization activation was inconclusive: 0.267% [signal inhibitor].
For `O=C1CN(C(=O)c2ccc(S(=O)(=O)N3CCCC3)cc2)C(c2ccccc2)c2cc(F)ccc2N1` (stereo unspecified), the IkBa stabilization activation was inconclusive: -1.93% [signal inhibitor].
With `Cc1ccccc1-c1noc(-c2ccccc2OCC(=O)Nc2cccc([N+](=O)[O-])c2)n1` the IkBa stabilization activation was inconclusive: 3.99% [signal inhibitor].
With `CC(C)C[C@@H](CC(=O)N[C@@H](CCC(=O)O)CC(=O)O)NC(=O)[C@@H]1CNCC[C@H]1NC(=O)C[C@@H](NC(=O)C[C@H](Cc1c[nH]c2ccccc12)NC(=O)[C@@H]1CNCC[C@H]1N)C(C)C` the IkBa stabilization activation was “inactive”.
With `c1cn(-c2ncnc3ccc(-c4ccoc4)cc23)cn1` the IkBa stabilization activation was inactive: 11.5% [at 11.4 µM, scaled: untreated 0%, proteasome inhibitor 100%].
With `Cc1nc(-c2ccc(F)cc2)sc1CCNC(=O)Cc1ccc(F)cc1` the IkBa stabilization activation was inconclusive: -0.835% [signal inhibitor].
With `CCn1cc2nc(SCc3ccccc3Cl)n(Cc3ccc(OC)cc3)c(=O)c2n1` the IkBa stabilization activation was inconclusive: 16.3% [signal inhibitor].
With `COc1ccc(-c2c(C)c3ccc(O)c(CN4CCC(C)CC4)c3oc2=O)cc1OC` the IkBa stabilization activation was inconclusive: -1.12% [signal inhibitor].
For `COc1ccc(C(Nc2ccccn2)c2ccc3ccc(C)nc3c2O)cc1C` (stereo unspecified), the Potency was inconclusive: 10 µM [signal inhibitor, partial curve].
For `O=C(NCc1ccco1)C1CCN(C(=O)c2cc3sccc3n2Cc2ccc(Cl)cc2)CC1`, the IkBa stabilization activation was inconclusive: 1.52% [signal inhibitor].
With `CN1CCN(c2ncnc3c2cnn3-c2cccc(Cl)c2)CC1` the IkBa stabilization activation was inconclusive: 7.05% [signal inhibitor].
For `Cc1cccc(N2CCN(C3=C(c4ccccc4)C(=O)c4ccccc43)CC2)c1C`, the IkBa stabilization activation was inconclusive: 3.86% [signal inhibitor].
In the case of `COc1cc(OC)c(OC)cc1/C=C/c1nc2cc3ccccc3cc2c(=O)n1-c1ccccc1Br`, the Potency is reported as inconclusive: 12.6 µM [signal inhibitor].
For `COc1cccc(-c2nccc(NCc3cccc(C)c3)n2)c1`, the IkBa stabilization activation was inactive: 0.317% [at 11.4 µM, scaled: untreated 0%, proteasome inhibitor 100%].
In the case of `c1ccc(C2=Nn3c(nnc3-c3cc(-c4ccccc4)n[nH]3)SC2)cc1`, the IkBa stabilization activation is reported as inconclusive: -2.76% [signal inhibitor].
For `COCCNC(=O)c1cc(-c2cccc(OC)c2)on1`, the Potency was inconclusive: 25.1 µM [signal inhibitor, partial curve].
In the case of `CCN1CCN(c2oc(-c3ccc(COc4ccccc4C)o3)nc2C#N)CC1`, the IkBa stabilization activation is reported as inconclusive: 1.35% [signal inhibitor].
With `O=C(Nc1cccc(-c2nc3cc(Cl)ccc3o2)c1)C1CCCO1` (stereo unspecified) the IkBa stabilization activation was inconclusive: 3.77% [signal inhibitor].
With `Cc1noc(C)c1S(=O)(=O)N(CC(=O)Nc1ccc(F)cc1F)c1ccc(C(C)C)cc1` the IkBa stabilization activation was inconclusive: 4.96% [signal inhibitor].
With `CCCNC(=O)c1ccc2c(c1)nc1n2CCCCC1` the IkBa stabilization activation was inconclusive: 2.2% [signal inhibitor].
In the case of `COc1cccc(CNC(=O)Cn2ncn3nc(-c4cccs4)cc3c2=O)c1`, the IkBa stabilization activation is reported as inconclusive: 0.636% [signal inhibitor].
In the case of `Oc1c(C(Nc2ccccn2)c2ccccc2F)ccc2cccnc12` (stereo unspecified), the IkBa stabilization activation is reported as “inactive”.
With `COc1ccc(Cn2ccc3nc(C)c(C(=O)Nc4cccc(SC)c4)cc3c2=O)cc1` the IkBa stabilization activation was inconclusive: 1.03% [signal inhibitor].
In the case of `COc1cc(OC)cc(C(=O)Nc2cc3c(cc2N2CCCCC2)n(C)c(=O)n3C)c1`, the IkBa stabilization activation is reported as inconclusive: 8.14% [signal inhibitor].
For `CCN(CCNC(=O)C1CCN(Cc2nc(-c3ccc(Cl)cc3)oc2C)CC1)c1ccccc1`, the IkBa stabilization activation was inconclusive: -4.4% [signal inhibitor].
For `Fc1ccc(Br)cc1C1C=C(c2ccc(Br)s2)Nc2ncnn21` (stereo unspecified), the IkBa stabilization activation was “inactive”.
For `COc1ccc(C)cc1-n1nnnc1SCc1nc2ccccc2s1`, the IkBa stabilization activation was inconclusive: 4.32% [signal inhibitor].
